The whole screen tested about 370,000 compounds, of which about 150 (0.041%) were called active. The inconclusive results got no clear call from the source; some entries with a clear call stand among them for comparison. The call rests on the fitted dose curve; in most records, active means well fitted inhibition curve with a large enough effect; inconclusive means small, poorly fitted or top-dose-only effect; inactive means flat fitted curve, though single readings scatter. Potencies of inconclusive entries are left out as doubtful fits.
Target: Beta-lactamase (Escherichia coli (strain K12)) (UniProt P00811)
Experiment: qHTS Inhibitors of AmpC Beta-Lactamase (assay with detergent); further: nearly all actives have a fitted effect of over 25% in size
Settings: AmpC hydrolysis of nitrocefin, absorbance 480 nm, 0.01% Triton; series mostly up to 114 µM
How it was run: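 AmpC (5.3 nM in the dispensed reagent) in 20 mM phosphate pH 7.0 with 0.01% (detergent screen) or 0.0001% Triton X-100 was preincubated with compounds for 15 min at room temperature. Nitrocefin was then added from an 800 uM solution, and hydrolysis was followed at 480 nm.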
Potency means the concentration at half of the fitted maximal effect; tags describe the fitted curve by direction and shape.

Sequence of UniProt P00811 (P00811 whole entry, looked up): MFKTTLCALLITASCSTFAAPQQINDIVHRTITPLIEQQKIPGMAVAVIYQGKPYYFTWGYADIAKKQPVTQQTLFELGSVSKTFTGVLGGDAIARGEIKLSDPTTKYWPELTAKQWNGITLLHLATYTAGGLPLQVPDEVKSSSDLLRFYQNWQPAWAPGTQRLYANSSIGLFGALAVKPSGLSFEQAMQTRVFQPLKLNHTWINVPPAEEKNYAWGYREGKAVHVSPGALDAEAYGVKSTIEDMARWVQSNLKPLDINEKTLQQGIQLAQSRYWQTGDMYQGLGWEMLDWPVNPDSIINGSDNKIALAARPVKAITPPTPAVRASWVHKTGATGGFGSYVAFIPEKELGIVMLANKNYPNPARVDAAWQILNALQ

Row | SMILES | Potency
1 | CC(=O)Nc1ccc(N/C(=N\S(=O)(=O)c2ccccc2)c2ccccc2)cc1 | inconclusive [inhibitor, full curve]
2 | COc1ccc2c(COC(=O)c3cccc(S(=O)(=O)NCC(C)C)c3)cc(=O)oc2c1 | inactive
3 | O=C(/C=C/c1ccc(Cl)cc1)Nc1nccs1 | inactive
4 | Cc1noc(N)c1C(=O)Nc1ccccc1F | inconclusive [inhibitor, partial curve, poor fit]
5 | COc1ccc(-c2csc(N3CCC(C(N)=O)(N4CCCCC4)CC3)n2)cc1 | inactive
6 | COc1ccc(-c2nc(SC)n(S(=O)(=O)c3ccccc3)n2)cc1 | inactive
7 | Cc1cc(C)n2nc(SCC(=O)c3ccccc3)nc2n1 | inactive
8 | O=C(CN1CCN(S(=O)(=O)/C=C/c2ccccc2)CC1)Nc1ccc(N2CCOCC2)cc1 | inconclusive [inhibitor, full curve, poor fit]
9 | Cc1ccc2c(c1)N(C(=O)CCC(=O)NCc1cccnc1)CCO2 | inconclusive [inhibitor, single point]
10 | c1ccc2c(c1)oc1c(NCCCN3CCOCC3)ncnc12 | inconclusive [inhibitor, full curve, poor fit]
11 | Cc1ccc(C(C)C)c(OCC(=O)NNC(=O)C2CSC3(C)CCC(=O)N23)c1 (stereo not given) | inconclusive [inhibitor, full curve, poor fit]
12 | COC(=O)[C@@H](NCc1cccc(CN[C@H](C(=O)OC)C(C)C)c1)C(C)C | inconclusive [inhibitor, full curve, poor fit]
13 | CCCn1nnc(NC(=O)c2ccc(Cl)cc2Cl)n1 | inactive
14 | C/C(=N\NC(=O)c1ccc(C)cc1C)c1ccc2c(c1)OCO2 | inconclusive [inhibitor, full curve, poor fit]
15 | Cc1sc(-c2ccncc2)nc1OC(=O)c1ccc(Cl)cc1 | inconclusive [inhibitor, partial curve, poor fit]
16 | COc1ccc(Cl)cc1NC(=O)CSc1nc(-c2ccccc2)cc(=O)[nH]1 | inactive
17 | Cc1ccc(OCc2nnc(SCCN3CCOCC3)n2C)cc1 | inconclusive [inhibitor, partial curve, poor fit]
18 | Cc1cc(O)c(C(c2ccc(Cl)cc2)N2CCN(c3ccccc3)CC2)c(=O)n1Cc1ccco1 (stereo not given) | inactive
19 | Cc1ccc(NC(=O)CCCN2C(=O)c3cccc4cccc(c34)C2=O)cc1 | inactive
20 | CC(=O)Nc1ccn(-c2ccccc2)n1 | inconclusive [inhibitor, full curve, poor fit]
21 | CCCCc1ccc(-c2ccc(Br)cc2O)nc1 | inactive
22 | CC(C)C(=O)Nc1ccc(C(=O)NCc2cccnc2)cc1 | inconclusive [inhibitor, partial curve, poor fit]
23 | CN1/C(=C\C=C(/C#N)C(=O)Nc2ccc(Cl)cc2)C(C)(C)c2ccccc21 | inconclusive [inhibitor, partial curve]

Row | SMILES | Potency
24 | O=C(Nc1ccc(Cl)cc1)c1cc(S(=O)(=O)N2CCOCC2)cs1 | inconclusive [inhibitor, full curve, poor fit]
25 | COc1ccc(C(=O)NCCCOC(C)C)cc1OC1CCN(C(C)=O)CC1 | inconclusive [inhibitor, full curve, poor fit]
26 | Cc1ccc(Nc2cc(C)nc(N3CCOCC3)n2)cc1 | inactive
27 | O=C(OCn1ncc(Cl)c(Cl)c1=O)c1ccc(F)cc1 | inactive
28 | CSc1cccc2sc(NC(=O)C3=COCCO3)nc12 | inconclusive [inhibitor, full curve, poor fit]
29 | COc1ccc(NC(=O)c2c(-c3ccccc3Cl)noc2C)c(OC)c1 | inconclusive [inhibitor, full curve, poor fit]
30 | Cc1ccccc1NC(=O)CCCCC(=O)Nc1ccccc1C | inconclusive [inhibitor, partial curve, poor fit]
31 | Cc1cccc(-n2c(Cc3cc(=O)[nH]c(=O)[nH]3)nnc2SCC(=O)N2CCCCC2)c1 | inconclusive [inhibitor, full curve]
32 | O=C(OCCN1CCCCC1)c1ccccc1F | inconclusive [inhibitor, single point]
33 | COc1ccc(OCCSc2nc3ccccc3n2CCC(=O)O)cc1 | inactive
34 | COc1ccc(/C=C/C(=O)c2cc(F)ccc2OC(=O)c2ccccc2C)cc1OC | inconclusive [inhibitor, full curve, poor fit]
35 | OC(COCc1ccc2c(c1)OCO2)CN1CCN(Cc2ccccc2)CC1 (stereo not given) | inconclusive [inhibitor, partial curve]
36 | COc1ccc(S(=O)(=O)N2CCOCC2)cc1NC(=O)CNC(=O)c1cccs1 | inconclusive [inhibitor, full curve, poor fit]
37 | O=C(/C=C/c1ccccc1O)c1ccco1 | inconclusive [inhibitor, full curve, poor fit]
38 | Cc1ccc(C)c2[nH]c(=O)c(CCNC(=O)C(C)C)cc12 | inconclusive [inhibitor, full curve]
39 | Cn1ccc(NC(=O)c2ccc([N+](=O)[O-])cc2)n1 | inconclusive [inhibitor, full curve, poor fit]
40 | Cc1[nH]c2ccc(Cl)cc2c(=O)c1CN1CCCC1 | inconclusive [inhibitor, full curve, poor fit]
41 | Cc1ccc(/C=N/NC(=S)NC(C)C)o1 | inactive
42 | CCOC(=O)C1(Cc2ccccc2C)CCCN(C(=O)CCc2cccnc2)C1 (stereo not given) | inactive
43 | COC(=O)c1cccc(C(=O)Nc2cnc3ccccc3c2)n1 | inconclusive [inhibitor, full curve, poor fit]
44 | O=c1nc(-c2ccccc2)n(-c2ccccc2)[nH]1 | inconclusive [inhibitor, partial curve]
45 | O=C1CCC(c2ccccc2)(C2CCN(Cc3ccccc3)CC2)C(=O)N1 (stereo not given) | inconclusive [inhibitor, full curve, poor fit]

— PubChem BioAssay AID485294 (National Center for Advancing Translational Sciences (NCATS), 2010)
